In PubChem BioAssay (NCI):
Where “and” joins values, the source holds several entries; their conditions need not be identical. Equal values may be shown once.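 Step 1: Grow cells in 96-well plates. Step 2: Expose to compound for 48 hours at 5 concentrations. Step 3: Interpolate endpoints linearly; if unreached, use highest concentration. At the GI50, growth is halved. The concentration for full growth arrest is given as TGI.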

Tested on: NCI-H322M lung
Assay: DTP human tumour cell line panel, 48 h

Q: `Nc1sc2c(c1C(=O)c1ccc(Cl)c(Cl)c1)CCCC2` was tested. Which TGI did it give?
A: > 100 µM

Q: For `Cc1ccc(NC(=O)c2cc3cc(N=Nc4ccc(Br)cc4)ccc3oc2=O)cc1`, which TGI is on record?
A: > 100 µM

Q: Which TGI does the source give for `N/C(=N\N=C/c1ccccc1O)NO` here?
A: > 100 µM

Q: How did the TGI turn out when `O=C(O)c1cc2ccccc2c(N=Nc2ccccc2)c1O` was run?
A: > 100 µM

Q: How did the TGI turn out when `COc1ccc(C2CC(=O)c3c(O)cc(O)cc3O2)cc1O` (configuration not stated) was run?
A: > 100 µM

Q: For `Cc1ccc(S(=O)(=O)N[C@H](C(=O)O)c2ccccc2)cc1`, which TGI is on record?
A: > 100 µM

Q: Which TGI does the source give for `Brc1ccc2[nH]cc(-c3csc(-c4ccccn4)n3)c2c1` here?
A: 47.8 µM

Q: How did the TGI turn out when `O=C1OC[C@@H]2[C@@H](O)CCCCCN12` was run?
A: > 100 µM

Q: Which GI50 does the source give for `CCNC(=O)[C@@H]1CCCN2C(=O)CC[C@H](NC(=O)[C@H](Cc3ccc(OP(=O)(O)O)cc3)NC(C)=O)C(=O)N12` here?
A: > 25 µM

Q: What about the TGI of the same molecule?
A: > 25 µM

Q: For `CCOC(=O)CN1C(=O)c2c(c(C)n(-c3ccccc3)c2C)C1=O`, which TGI is on record?
A: > 100 µM

Q: For `CC(C)/C=C1\CCC(CN2CCCC2)C1=O` (configuration not stated), which TGI is on record?
A: > 52.8 µM

Q: `CC(C)(C)OC1=C(OC(C)(C)C)C(O)(c2ccccc2)C1=O` (configuration not stated) was tested. Which TGI did it give?
A: > 100 µM

Q: Which GI50 does the source give for `CC(=O)NCCc1c2c(c3nccc4c3c1Nc1ccccc1-4)OCS2` here?
A: 3.28 µM

Q: What about the TGI of the same molecule?
A: 14.8 µM

Q: How did the GI50 turn out when `COc1cc(C2c3[nH]c4ccccc4c3C[C@H]3COC(=O)N23)cc(OC)c1OC` (some centres not stated) was run?
A: < 0.01 µM

Q: And the TGI?
A: > 100 µM

Q: How did the TGI turn out when `Cc1c(N2CCCC2)cc2c(c1NC(=O)c1ccccc1Cl)C(C)(C)CC2(C)C` was run?
A: 27.7 µM

Q: With `N=C(N)c1ccc(OCc2cccc(COc3ccc(C(=N)N)cc3)c2)cc1` as the molecule, how does the GI50 read?
A: 14.6 µM

Q: And the TGI?
A: 29.8 µM

Q: How did the GI50 turn out when `CCCCON(OC(=O)c1ccccc1)C(=O)c1ccccc1` was run?
A: > 100 µM

Q: And the TGI?
A: > 100 µM

Q: Which TGI does the source give for `CC(C)(C)NNC(=O)/C(=C/c1ccc([N+](=O)[O-])cc1)NC(=O)c1ccccc1` here?
A: > 100 µM

Q: `CS/C(=N\C(=S)N(C)C)N(c1ccccc1)c1nc(=[N+](C)C)ss1` was tested. Which TGI did it give?
A: 38 µM

Q: Which TGI does the source give for `COc1cc2c(/C=C3/C(=O)N(C)c4ccccc43)c(Cl)[nH]c2cc1C` here?
A: 29.5 µM

Q: For `COc1ccc2nc3cc(Cl)ccc3c(NCCCN(Cc3cc(OC)c(OC)c(OC)c3)Cc3cc(OC)c(OC)c(OC)c3)c2c1`, which TGI is on record?
A: 23.5 µM

Q: How did the TGI turn out when `C=CCn1c(=O)c2ccccc2[n+]2c(C)c(C(=O)OCC)sc12` was run?
A: > 100 µM

Q: `NC1=NC(=O)/C(=C/c2ccccc2[N+](=O)[O-])C(N)=N1` was tested. Which TGI did it give?
A: > 100 µM

Q: For `CC12CCC3C(CCC4Cc5[nH]c6ccccc6c5CC43C)C1CCC2O` (configuration not stated), which GI50 is on record?
A: 4.56 µM

Q: And the TGI?
A: > 100 µM

Q: How did the GI50 turn out when `Cc1ccc([N+](=O)[O-])cc1NC(=O)Nc1cccc(F)c1` was run?
A: 14.6 µM

Q: What about the TGI of the same molecule?
A: > 100 µM

Q: How did the TGI turn out when `Cc1cc2nc(C(C)C(=O)c3ccc(Cl)cc3)c(=O)[nH]c2cc1C` (configuration not stated) was run?
A: > 100 µM

Q: With `CC1(C)[C@H](C(=O)O)N2C(=O)[C@@H](NS(=O)(=O)c3ccc([N+](=O)[O-])cc3)[C@H]2S1(=O)=O` as the molecule, how does the TGI read?
A: > 100 µM

Q: Which results are given for `CCN(CC)CCOCC[C@H]1CC[C@H]2[C@@H]3[C@H](C)Cc4cc(OS(N)(=O)=O)ccc4[C@H]3CC[C@]12C`?
A: GI50: 1.96 µM; TGI: 5.74 µM

Q: `CC(C)(C)c1cc(CC2C(=O)c3ccccc3C2=O)cc(C(C)(C)C)c1O` was tested. Which TGI did it give?
A: 10.8 µM

Q: `COC(=O)[C@@]12C(=O)C=CC(=O)[C@@H]1C1C(=CC2COC(C)=O)O[C@@H]2OC3(CCCCC3)O[C@H]12` (some centres not stated) was tested. Which TGI did it give?
A: 31.6 µM

Q: For `O=C1/C(=C/c2ccccc2)CCCC1CN1CCCCC1` (configuration not stated), which TGI is on record?
A: 29.1 µM

Q: `COc1cc(Cc2cc3c(c(C(=O)O)c2Br)OCO3)cc(OC)c1OC` was tested. Which TGI did it give?
A: > 100 µM

Q: `O=C(Nc1cccc(-n2ccc3c(NC(=O)c4ccccc4)nccc32)c1)c1ccc(N2CCOCC2)c(C(F)(F)F)c1` was tested. Which GI50 did it give?
A: 0.0994 µM

Q: What about the TGI of the same molecule?
A: > 100 µM

Q: For `CN(Cc1cnc2nc(N)nc(N)c2n1)c1ccc(C(=O)NC(CCC(=O)O)C(=O)O)cc1C(F)(F)F` (configuration not stated), which TGI is on record?
A: > 100 µM

Q: Which results are given for `O=C(Nc1ccc(Cl)c(Cl)c1)c1cccc(NC2=C(Cl)C(=O)N(Cc3ccccc3)C2=O)c1`?
A: GI50: > 100 µM; TGI: > 100 µM

Q: How did the TGI turn out when `O=C(O)c1ccccc1NC(c1ccccc1)c1ccc2cccnc2c1O` (configuration not stated) was run?
A: > 76.9 µM

Q: With `F` as the molecule, how does the GI50 read?
A: 6100 µM

Q: And the TGI?
A: > 6870 µM

Q: `COc1cc(C(=O)/C=C/c2c(C)n([O-])c3ccc(C)cc3[n+]2=O)cc(OC)c1OC` was tested. Which GI50 did it give?
A: 22.2 µM

Q: What about the TGI of the same molecule?
A: 57.2 µM

Q: `Nc1cc2c3c(c1)Oc1cc(N)cc4c1C3c1c(cc(N)cc1O4)O2` was tested. Which TGI did it give?
A: > 80.6 µM

Q: For `C[C@@H]1COCCN1c1cc(C2([S@](C)(=N)=O)CC2)nc(-c2ccnc3[nH]ccc23)n1`, which GI50 is on record?
A: 1.54 µM and 1.47 µM

Q: What about the TGI of the same molecule?
A: > 100 µM

Q: Which TGI does the source give for `CC(=N\N)/C(C)=N/N=C(C)/C(C)=N/N=C(C)/C(C)=N/N=C(C)/C(C)=N/N` here?
A: > 100 µM

Q: How did the TGI turn out when `OC1[C@H]([C@H]2CCCC[C@@H]2O)CCC[C@@H]1[C@@H]1CCCC[C@H]1O` (some centres not stated) was run?
A: > 100 µM

Q: Which TGI does the source give for `COc1cc(C2SC(N)=Nc3c2c(C)nn3C(=O)c2ccccc2O)cc(OC)c1OC` (configuration not stated) here?
A: > 10 µM

Q: For `C=CCN1CCC(OC(=O)C(O)(C#CC)C2CCCC2)CC1` (configuration not stated), which TGI is on record?
A: > 100 µM
